Results from patent US20200400567A1, “FUSION POLYPEPTIDE” (PEKING UNIVERSITY, priority 2017, published 2020).
Read-outs that look alike come from different tables or passages of the source.

Assays:
[1] = test system: G protein-coupled receptor (M3R, HRH1, OxtR, DRD2, B2AR, HTR4); assay: GRAB sensors with fluorescent protein at the GPCR C-terminus, perfusion with receptor agonists in HEK293T cells; assay type: cell-based, human
Excerpt: Based on the previously constructed acetylcholine fluorescent sensor GRAB-ACh2.0, the portion of the polypeptide linkers and cpEGFP in the third intracellular loop was inserted after the position 580 of the C-terminus sequence of the human muscarinic acetylcholine receptor M3R protein, and Gq20 peptide segment and TS and ER export sequences were connected to the end of the M3R protein to obtain a fusion peptide acetylcholine sensor GRAB-ACh-Cter580 with a fluorescent protein fused at the C-terminus.
Next, the method of constructing a chimeric receptor was used to construct fusion polypeptide sensors with a fluorescent protein at the C-terminus of different G protein-coupled receptors. The three sites, K567, R568 and R569, at the C-terminus of GRAB-ACh-Cter580 were selected as the cutting sites and labeled as C1, C2 and C3, respectively. After cutting, the multiple C-terminus sequences containing fluorescent protein were fused to HRH1 (SEQ ID NO: 27), OxtR (SEQ ID NO: 29), DRD2, B2AR, and HTR4 (SEQ ID NO: 28) at specific positions, respectively. Changes in signal generated by these fusion polypeptides in perfusion experiments with corresponding receptor agonists were observed.

[2] = molecular target: human ADRA2A receptor; assay type: cell-based; settings: NE 1 nM to 1 mM, Boltzmann fit; read-out: EC50 for norepinephrine
Method: The perfusion system was set on a microscope, and including a solution-introduced system, an imaging cell, and a suction pump. During the perfusion process, the imaging cell was placed above the objective lens of the inverted microscope, and the slide with cultured cells was placed in the cell. The perfusion experiments of different drugs were performed by controlling the switches of the different pipes of the solution-introduced system. The perfusion speed was set to one drop or so per second. In order to ensure the stability of the focal plane, the liquid level was kept constant at all times, and the flow rate of each solution was adjusted accordingly. The aspiration speed was adjusted to maintain the liquid level in the cell over the slide. […]
After the end of the program, the time-fluorescence intensity data sheet was exported. The background was subtracted from the ROI to get the corresponding fluorescence value Ft, and the average value of the fluorescence value before adding the drug was used as the starting fluorescence F0 to calculate […]
Fluorescence imaging data was processed using ImageJ software. For the fluorescence performance of GRAB sensors in HEK293T cells and neurons, the entire cell body was selected as the data processing region. The change in the fluorescence signal was usually indicated by its relative intensity change. […]

[3] = test system: human ADRA2A receptor; assay: GRAB-NE2.1 in cultured rat cortical neurons, drug perfusion; assay type: cell-based
[4] = test system: human ADRA2A receptor; assay: GRAB-NE2.1 in primary cultured rat cardiomyocytes, drug perfusion; assay type: cell-based
Excerpt: The GRAB-NE2.1 sensor was transfected into primary cultured rat cardiomyocytes by liposomes, and the optical signal changes for the ligand binding and affinity for ligand were detected by drug perfusion.

B1: GRAB-ACh-Cter580: M3R with linkers and cpEGFP inserted after position 580 of C-terminus, Gq20 and export sequences, SEQ ID NO: 17 (protein)
chain: METDTLLLWVLLLWVPGSTGDTSLYKKVGTTLHNNSTTSPLFPNISSSWIHSPSDAGLPPGTVTHFGSYNVSRAAGNFSSPDGTTDDPLGGHTVWQVVFIAFLTGILALVTIIGNILVIVSFKVNKQLKTVNNYFLLSLACADLIIGVISMNLFTTYIIMNRWALGNLACDLWLAIDYVASNASVMNLLVISFDRYFSITRPLTYRAKRTTKRAGVMIGLAWVISFVLWAPAILFWQYFVGKRTVPPGECFIQFLSEPTITFGTAIAAFYMPVTIMTILYWRVFQEAKRQLQKIDKSEGRFHVQNLSQVEQDGRTGHGLRRSSKFCLKEHKALKTLSAILLAFIITWTPYNIMVLVNTFCDSCIPKTFWNLGYWLCYINSTVNPVCYALCNKTFRTTFKMLLLCQCDKKKRRKQQYQQRQSVIGGNVYIKADKQKNGIKANFHIRHNIEDGGVQLAYHYQQNTPIGDGPVLLPDNHYLSVQSKLSKDPNEKRDHMVLLEFVTAAGITLGMDELYKGGTGGSMVRKGEELFTGVVPILVELDGDVNGHKFSVSGEGEGDATYGKLTLKFICTTGKLPVPWPTLVTTLTYGVQCFSRYPDHMKQHDFFKSAMPEGYIQERTIFFKDDGNYKTRAEVKFEGDTLVNRIELKGIDFKEDGNILGHKLEYNGGAAAFHKRAPEQALVFAAVKDTILQLNLKEYNLVKSRITSEGEYIPLDQIDINVNSFCYENEVALT
modifications: GRAB-ACh-Cter580
ΔF/F0 fluorescence response ([1]; ACh (100 μM)): ~40%

B2: GRAB-His-Cter580: GRAB-ACh-Cter580 C-terminus from C1 site inserted after 483 L of HRH1, SEQ ID NO: 19 (protein)
chain: METDTLLLWVLLLWVPGSTGDTSLYKKVGTSLPNSSCLLEDKMCEGNKTTMASPQLMPLVVVLSTICLVTVGLNLLVLYAVRSERKLHTVGNLYIVSLSVADLIVGAVVMPMNILYLLMSKWSLGRPLCLFWLSMDYVASTASIFSVFILCIDRYRSVQQPLRYLKYRTKTRASATILGAWFLSFLWVIPILGWNHFMQQTSVRREDKCETDFYDVTWFKVMTAIINFYLPTLLMLWFYAKIYKAVRQHCQHRELINRSLPSFSEIKLRPENPKGDAKKPGKESPWEVLKRKPKDAGGGSVLKSPSQTPKEMKSPVVFSQEDDREVDKLYCFPLDIEHMQAAAEGSSRDYVAVNRSHGQLKTDEQGLNTHGASEISEDQMLGDSQSFSRTDSDTTTETAPGKGKLRSGSNTGLDYIKFTWKRLRSHSRQYVSGLHMNRERKAAKQLGFIMAAFILCWIPYFIFFMVIAFCKNCCNEHLHMFTIWLGYINSTLNPLIYPLCNENFKKTFKRILKRRKQQYQQRQSVIGGNVYIKADKQKNGIKANFHIRHNIEDGGVQLAYHYQQNTPIGDGPVLLPDNHYLSVQSKLSKDPNEKRDHMVLLEFVTAAGITLGMDELYKGGTGGSMVRKGEELFTGVVPILVELDGDVNGHKFSVSGEGEGDATYGKLTLKFICTTGKLPVPWPTLVTTLTYGVQCFSRYPDHMKQHDFFKSAMPEGYIQERTIFFKDDGNYKTRAEVKFEGDTLVNRIELKGIDFKEDGNILGHKLEYNGGAAAFHKRAPEQALVFAAVKDTILQLNLKEYNLVKSRITSEGEYIPLDQIDINVNSFCYENEVALT
modifications: GRAB-His-Cter580
change in fluorescence signal ([1]; 1 mM Histamine): 20%

B3: GRAB-5HT-Cter580: GRAB-ACh-Cter580 C-terminus from C2 site inserted after 334Y of HTR4, SEQ ID NO: 20 (protein)
chain: METDTLLLWVLLLWVPGSTGDTSLYKKVGTDKLDANVSSNEGFRSVEKVVLLTFLAVVILMAILGNLLVMVAVCRDRQLRKIKTNYFIVSLAFADLLVSVLVMPFGAIELVQDIWAYGEMFCLVRTSLDVLLTTASIFHLCCISLDRYYAICCQPLVYRNKMTPLRIALMLGGCWVLPMFISFLPIMQGWNNIGIVDVIEKRKFSHNSNSTWCVFMVNKPYAITCSVVAFYIPFLLMVLAYYRIYVTAKEHAQQIQMLQRAGATSESRPQPADQHSTHRMRTETKAAKTLCVIMGCFCFCWAPFFVTNIVDPFIDYTVPEQVWTAFLWLGYINSGLNPFLYAFLNKSFRRAFLIILCCDDERYRKQQYQQRQSVIGGNVYIKADKQKNGIKANFHIRHNIEDGGVQLAYHYQQNTPIGDGPVLLPDNHYLSVQSKLSKDPNEKRDHMVLLEFVTAAGITLGMDELYKGGTGGSMVRKGEELFTGVVPILVELDGDVNGHKFSVSGEGEGDATYGKLTLKFICTTGKLPVPWPTLVTTLTYGVQCFSRYPDHMKQHDFFKSAMPEGYIQERTIFFKDDGNYKTRAEVKFEGDTLVNRIELKGIDFKEDGNILGHKLEYNGGAAAFHKRAPEQALVFAAVKDTILQLNLKEYNLVKSRITSEGEYIPLDQIDINVNSFCYENEVALT
modifications: GRAB-5HT-Cter580
change in fluorescence signal ([1]; 10 μM 5HT): 10%

B4: GRAB-NE2.1: GRAB-NE2.0 with peptide linker GG-TGAAA, SEQ ID NO: 23 (protein)
chain: METDTLLLWVLLLWVPGSTGDTSLYKKVGTTGGSLQPDAGNASWNGTEAPGGGARATPYSLQVTLTLVCLAGLLMLLTVFGNVLVIIAVFTSRALKAPQNLFLVSLASADILVATLVIPFSLANEVMGYWYFGKAWCEIYLALDVLFCTSSIVHLCAISLDRYWSITQAIEYNLKRTPRRIKAIIITVWVISAVISFPPLISIEKKGGGGGPQPAEPRCEINDQKWYVISSCIGSFFAPCLIMILVYVRIYQIAKRRTRVPPSRRGPDAVAAPPGGTERRPNGLGPERSAGPGGAEAEPLPTQLNGAPGEPAPAGPRDTDALDLEEGGNVYIKADKQKNGIKANFHIRHNIEDGGVQLAYHYQQNTPIGDGPVLLPDNHYLSVQSKLSKDPNEKRDHMVLLEFVTAAGITLGMDELYKGGTGGSMVRKGEELFTGVVPILVELDGDVNGHKFSVSGEGEGDATYGKLTLKFICTTGKLPVPWPTLVTTLTYGVQCFSRYPDHMKQHDFFKSAMPEGYIQERTIFFKDDGNYKTRAEVKFEGDTLVNRIELKGIDFKEDGNILGHKLEYNTGAAARWRGRQNREKRFTFVLAVVIGVFVVCWFPFFFTYTLTAVGCSVPRTLFKFFFWFGYCNSSLNPVIYTIFNHDFRRAFKKILCRGDRKRIVL
modifications: GRAB-NE2.1
EC50 [2]: 900 nM
change in fluorescence signal on cell membrane and dendritic spines ([3]; 100 μM NE perfusion, neurons): about 200%
response of cell body ([3]; 100 μM NE perfusion, neurons): about 60%
EC50 ([3]; neuronal cell body, NE 10 nM to 100 μM, read-out: ligand affinity): 790 nM
fluorescence signal change ([4]; 100 μM NE perfusion): greater than 300%
EC50 ([4]; NE 1 nM to 100 μM, read-out: affinity): 500 nM
EC50 ([4]; different concentrations of norepinephrine, read-out: affinity for the ligand): ~500 nM

B5: GRAB-Oxt-Cter580: GRAB-ACh-Cter580 C-terminus from C1 site inserted after 353 K of OxtR, SEQ ID NO: 21 (protein)
chain: METDTLLLWVLLLWVPGSTGDTSLYKKVGTEGALAANWSAEAANASAAPPGAEGNRTAGPPRRNEALARVEVAVLCLILLLALSGNACVLLALRTTRQKHSRLFFFMKHLSIADLVVAVFQVLPQLLWDITFRFYGPDLLCRLVKYLQVVGMFASTYLLLLMSLDRCLAICQPLRSLRRRTDRLAVLATWLGCLVASAPQVHIFSLREVADGVFDCWAVFIQPWGPKAYITWITLAVYIVPVIVLAACYGLISFKIWQNLRLKTAAAAAAEAPEGAAAGDGGRVALARVSSVKLISKAKIRTVKMTFIIVLAFIVCWTPFFFVQMWSVWDANAPKEASAFIIVMLLASLNSCCNPWIYMLFTGHLFHELVQRFLCCSASYLKKRRKQQYQQRQSVIGGNVYIKADKQKNGIKANFHIRHNIEDGGVQLAYHYQQNTPIGDGPVLLPDNHYLSVQSKLSKDPNEKRDHMVLLEFVTAAGITLGMDELYKGGTGGSMVRKGEELFTGVVPILVELDGDVNGHKFSVSGEGEGDATYGKLTLKFICTTGKLPVPWPTLVTTLTYGVQCFSRYPDHMKQHDFFKSAMPEGYIQERTIFFKDDGNYKTRAEVKFEGDTLVNRIELKGIDFKEDGNILGHKLEYNGGAAAFHKRAPEQALVFAAVKDTILQLNLKEYNLVKSRITSEGEYIPLDQIDINVNSFCYENEVALT
modifications: GRAB-Oxt-Cter580
change in fluorescence signal ([1]; 1 μM Oxytocin): 10%
